# The supplement of paper PMC8728848
# Some of the results follow.
# Experiments:
# Assay in all cases: glycan array binding signal (z-score within array); higher = stronger binding
# Conditions in all cases: glycan notation: IUPAC condensed, linker removed
# Gal(a1-3)Gal = target: Gal(a1-3)Gal
# Summary of the method: (§1)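 Arrays were curated from the Consortium for Functional Glycomics database, 3228 in total, and kept only where the protein sequence was available. Binding is expressed as a within-array Z-score. This score was averaged across arrays of the same protein sequence at different concentrations or buffers and across linkers, and negative values can be read as non-binding.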
# Gal(a1-3)Gal(b1-3)GlcNAc = target: Gal(a1-3)Gal(b1-3)GlcNAc
# Summary of the method: as §1
# Gal(a1-3)Gal(b1-4)Glc = target: Gal(a1-3)Gal(b1-4)Glc
# Summary of the method: as §1
# Gal(a1-3)Gal(b1-4)GlcNAc = target: Gal(a1-3)Gal(b1-4)GlcNAc
# Summary of the method: as §1
# [1] = target: Gal(a1-3)Gal(b1-4)[Fuc(a1-3)]GlcNAc
# Summary of the method: as §1
# [2] = target: Gal(a1-3)Gal(b1-4)[Fuc(a1-3)]GlcNAc(b1-2)Man(a1-3)[Gal(a1-3)Gal(b1-4)[Fuc(a1-3)]GlcNAc(b1-2)Man(a1-6)]Man(b1-4)GlcNAc(b1-4)GlcNAc
# Summary of the method: as §1
# Gal(a1-3)GalNAc = target: Gal(a1-3)GalNAc
# Summary of the method: as §1
# [3] = target: Gal(a1-3)[Gal(a1-4)]Gal(b1-4)GlcNAc
# Summary of the method: as §1
# Gal(a1-4)Gal(b1-4)Glc = target: Gal(a1-4)Gal(b1-4)Glc
# Summary of the method: as §1
# Gal(a1-4)Gal(b1-4)GlcNAc = target: Gal(a1-4)Gal(b1-4)GlcNAc
# Summary of the method: as §1
# [4] = target: Gal(a1-4)Gal(b1-4)GlcNAc(b1-3)Gal(b1-4)Glc
# Summary of the method: as §1
# Gal(a1-4)GlcNAc = target: Gal(a1-4)GlcNAc
# Summary of the method: as §1
# Gal(a1-6)Glc = target: Gal(a1-6)Glc
# Summary of the method: as §1
# Gal(b1-2)Gal = target: Gal(b1-2)Gal
# Summary of the method: as §1
# Gal(b1-3)Gal = target: Gal(b1-3)Gal
# Summary of the method: as §1
# Gal(b1-3)Gal(b1-4)GlcNAc = target: Gal(b1-3)Gal(b1-4)GlcNAc
# Summary of the method: as §1
# [5] = target: Gal(b1-3)Gal(b1-4)GlcNAc(b1-2)Man(a1-3)[Gal(b1-3)Gal(b1-4)GlcNAc(b1-2)Man(a1-6)]Man(b1-4)GlcNAc(b1-4)GlcNAc
# Summary of the method: as §1
# Gal(b1-3)GalNAc = target: Gal(b1-3)GalNAc
# Summary of the method: as §1
# [6] = target: Gal(b1-3)GalNAc(a1-3)[Fuc(a1-2)]Gal(b1-4)Glc
# Summary of the method: as §1
# [7] = target: Gal(b1-3)GalNAc(a1-3)[Fuc(a1-2)]Gal(b1-4)GlcNAc
# Summary of the method: as §1
# [8] = target: Gal(b1-3)GalNAc(b1-3)Gal(a1-4)Gal(b1-4)Glc
# Summary of the method: as §1
# [9] = target: Gal(b1-3)GalNAc(b1-4)Gal(b1-4)Glc
# Summary of the method: as §1
# [10] = target: Gal(b1-3)GalNAc(b1-4)[Neu5Ac(a2-3)]Gal(b1-4)Glc
# Summary of the method: as §1
# Gal(b1-3)GlcNAc = target: Gal(b1-3)GlcNAc
# Summary of the method: as §1
# [11] = target: Gal(b1-3)GlcNAc(b1-2)Man(a1-3)[Gal(b1-3)GlcNAc(b1-2)Man(a1-6)]Man(b1-4)GlcNAc(b1-4)GlcNAc
# Summary of the method: as §1
# [12] = target: Gal(b1-3)GlcNAc(b1-2)Man(a1-3)[Gal(b1-3)GlcNAc(b1-2)Man(a1-6)]Man(b1-4)GlcNAc(b1-4)[Fuc(a1-6)]GlcNAc
# Summary of the method: as §1
# [13] = target: Gal(b1-3)GlcNAc(b1-3)Gal(b1-3)GlcNAc
# Summary of the method: as §1
# [14] = target: Gal(b1-3)GlcNAc(b1-3)Gal(b1-4)Glc
# Summary of the method: as §1
# [15] = target: Gal(b1-3)GlcNAc(b1-3)Gal(b1-4)GlcNAc
# Summary of the method: as §1
# [16] = target: Gal(b1-3)[Fuc(a1-4)]GlcNAc
# Summary of the method: as §1
# [17] = target: Gal(b1-3)[Fuc(a1-4)]GlcNAc(b1-2)Man(a1-3)[Gal(b1-3)[Fuc(a1-4)]GlcNAc(b1-2)Man(a1-6)]Man(b1-4)GlcNAc(b1-4)GlcNAc
# Summary of the method: as §1
# [18] = target: Gal(b1-3)[Fuc(a1-4)]GlcNAc(b1-2)Man(a1-3)[Gal(b1-3)[Fuc(a1-4)]GlcNAc(b1-2)Man(a1-6)]Man(b1-4)GlcNAc(b1-4)[Fuc(a1-6)]GlcNAc
# Summary of the method: as §1
# [19] = target: Gal(b1-3)[Fuc(a1-4)]GlcNAc(b1-3)Gal(b1-3)[Fuc(a1-4)]GlcNAc
# Summary of the method: as §1
# [20] = target: Gal(b1-3)[Fuc(a1-4)]GlcNAc(b1-3)Gal(b1-4)GlcNAc
# Summary of the method: as §1
# [21] = target: Gal(b1-3)[Fuc(a1-4)]GlcNAc(b1-3)Gal(b1-4)[Fuc(a1-3)]GlcNAc
# Summary of the method: as §1
# [22] = target: Gal(b1-3)[GlcNAc(b1-6)]GalNAc
# Summary of the method: as §1
# [23] = target: Gal(b1-3)[Neu5Ac(a2-6)]GalNAc
# Summary of the method: as §1
# [24] = target: Gal(b1-3)[Neu5Ac(a2-6)]GlcNAc(b1-6)Gal(b1-4)Glc
# Summary of the method: as §1
# [25] = target: Gal(b1-3)[Neu5Ac(b2-6)]GalNAc
# Summary of the method: as §1
# [26] = target: Gal(b1-4)GalNAc(a1-3)[Fuc(a1-2)]Gal(b1-4)GlcNAc
# Summary of the method: as §1
# [27] = target: Gal(b1-4)GalNAc(b1-3)[Fuc(a1-2)]Gal(b1-4)GlcNAc
# Summary of the method: as §1
# Gal(b1-4)Glc = target: Gal(b1-4)Glc
# Summary of the method: as §1
# Gal(b1-4)Glc6S = target: Gal(b1-4)Glc6S
# Summary of the method: as §1
# Gal(b1-4)GlcNAc = target: Gal(b1-4)GlcNAc
# Summary of the method: as §1
# [28] = target: Gal(b1-4)GlcNAc(a1-6)Gal(b1-4)GlcNAc
# Summary of the method: as §1
# [29] = target: Gal(b1-4)GlcNAc(b1-2)Man(a1-3)Man(b1-4)GlcNAc(b1-4)GlcNAc
# Summary of the method: as §1
# [30] = target: Gal(b1-4)GlcNAc(b1-2)Man(a1-3)[Gal(b1-4)GlcNAc(b1-2)Man(a1-6)]Man(b1-4)GlcNAc(b1-4)GlcNAc
# Summary of the method: as §1
# [31] = target: Gal(b1-4)GlcNAc(b1-2)Man(a1-3)[Gal(b1-4)GlcNAc(b1-2)Man(a1-6)]Man(b1-4)GlcNAc(b1-4)[Fuc(a1-6)]GlcNAc
# Summary of the method: as §1
# [32] = target: Gal(b1-4)GlcNAc(b1-2)Man(a1-3)[Man(a1-6)]Man(b1-4)GlcNAc(b1-4)GlcNAc
# Summary of the method: as §1
# [33] = target: Gal(b1-4)GlcNAc(b1-2)Man(a1-6)Man(b1-4)GlcNAc(b1-4)GlcNAc
# Summary of the method: as §1
# [34] = target: Gal(b1-4)GlcNAc(b1-2)Man(a1-6)[Man(a1-3)]Man(b1-4)GlcNAc(b1-4)GlcNAc
# Summary of the method: as §1
# [35] = target: Gal(b1-4)GlcNAc(b1-2)[Gal(b1-4)GlcNAc(b1-4)]Man(a1-3)[Gal(b1-4)GlcNAc(b1-2)Man(a1-6)]Man(b1-4)GlcNAc(b1-4)GlcNAc
# Summary of the method: as §1
# [36] = target: Gal(b1-4)GlcNAc(b1-3)Gal(b1-3)GlcNAc
# Summary of the method: as §1
# [37] = target: Gal(b1-4)GlcNAc(b1-3)Gal(b1-4)Glc
# Summary of the method: as §1
# [38] = target: Gal(b1-4)GlcNAc(b1-3)Gal(b1-4)GlcNAc
# Summary of the method: as §1
# [39] = target: Gal(b1-4)GlcNAc(b1-3)Gal(b1-4)GlcNAc(b1-3)Gal(b1-4)GlcNAc
# Summary of the method: as §1
# [40] = target: Gal(b1-4)GlcNAc(b1-3)Gal(b1-4)[Fuc(a1-3)]GlcNAc(b1-3)Gal(b1-4)[Fuc(a1-3)]GlcNAc
# Summary of the method: as §1
# [41] = target: Gal(b1-4)GlcNAc(b1-3)GalNAc
# Summary of the method: as §1
# [42] = target: Gal(b1-4)GlcNAc(b1-3)[Gal(b1-4)GlcNAc(b1-6)]Gal(b1-4)GlcNAc
# Summary of the method: as §1
# [43] = target: Gal(b1-4)GlcNAc(b1-3)[GlcNAc(b1-6)]Gal(b1-4)GlcNAc
# Summary of the method: as §1
binder,measurement,setting,value
DETC sTCR (Mus musculus) (protein) LDVYLEPVAKTFTVVAGDPASFYCTVTGGDMKNYHMSWYKKNGTNALFLVYKLNSNSTDGGKSNLKGKINISKNQFILDIQKATMKDAGTYYCGSDIGGSSWDTRQMFFGTGIELFVEPKSQPPAKPSVFIMKNGTNVACLVKDFYPKEVTISLRSSKKIVEFDPAIVISPSGKYSAVKLGQYGDSNSVTCSVQHNSETVHSTDFEPYANSFNNEKLPEPENDTQISEPCSSADLVPRGSTTAPSAQLKKKLQALKKKNAQLKWKLQALKKKLAQHHHHHHDSWISQDQLSFTRRPNKTVHISCKLSGVPLHNTIVHWYQLKEGEPLRRIFYGSVKTYKQDKSHSRLEIDEKDDGTFYLIINNVVTSDEATYYCACWDSSGFHKVFAEGTKLIVIPSDKRLDADISPKPTIFLPSVAETNLHKTGTYLCLLEKFFPDVIRVYWKEKDGNTILDSQEGDTLKTNDTYMKFSWLTVPERAMGKEHRCIVKHENNKGGADQEIFFPSIKKVAVSTKPTTCSSADLVPRGSTTAPSAQLEKELQALEKENAQLEWELQALEKELAQLNDIFEAQKIEW,glycan array binding signal (z-score),Gal(a1-3)Gal,-0.626
same,glycan array binding signal (z-score),Gal(a1-3)Gal(b1-3)GlcNAc,-0.367
same,glycan array binding signal (z-score),Gal(a1-3)Gal(b1-4)Glc,-0.639
same,glycan array binding signal (z-score),Gal(a1-3)Gal(b1-4)GlcNAc,-0.643
same,glycan array binding signal (z-score),[1],-0.284
same,glycan array binding signal (z-score),[2],-0.631
same,glycan array binding signal (z-score),Gal(a1-3)GalNAc,0.029
same,glycan array binding signal (z-score),[3],0.9
same,glycan array binding signal (z-score),Gal(a1-4)Gal(b1-4)Glc,0.397
same,glycan array binding signal (z-score),Gal(a1-4)Gal(b1-4)GlcNAc,-0.169
same,glycan array binding signal (z-score),[4],0.052
same,glycan array binding signal (z-score),Gal(a1-4)GlcNAc,-0.601
same,glycan array binding signal (z-score),Gal(a1-6)Glc,-0.605
same,glycan array binding signal (z-score),Gal(b1-2)Gal,-0.101
same,glycan array binding signal (z-score),Gal(b1-3)Gal,-0.45
same,glycan array binding signal (z-score),Gal(b1-3)Gal(b1-4)GlcNAc,-0.515
same,glycan array binding signal (z-score),[5],-0.559
same,glycan array binding signal (z-score),Gal(b1-3)GalNAc,-0.241
same,glycan array binding signal (z-score),[6],-0.497
same,glycan array binding signal (z-score),[7],-0.518
same,glycan array binding signal (z-score),[8],-0.024
same,glycan array binding signal (z-score),[9],-0.294
same,glycan array binding signal (z-score),[10],1.47
same,glycan array binding signal (z-score),Gal(b1-3)GlcNAc,-0.464
same,glycan array binding signal (z-score),[11],0.085
same,glycan array binding signal (z-score),[12],0.945
same,glycan array binding signal (z-score),[13],-0.355
same,glycan array binding signal (z-score),[14],-0.571
same,glycan array binding signal (z-score),[15],-0.557
same,glycan array binding signal (z-score),[16],-0.401
same,glycan array binding signal (z-score),[17],0.583
same,glycan array binding signal (z-score),[18],2.22
same,glycan array binding signal (z-score),[19],-0.554
same,glycan array binding signal (z-score),[20],-0.152
same,glycan array binding signal (z-score),[21],-0.378
same,glycan array binding signal (z-score),[22],-0.348
same,glycan array binding signal (z-score),[23],-0.26
same,glycan array binding signal (z-score),[24],-0.311
same,glycan array binding signal (z-score),[25],-0.458
same,glycan array binding signal (z-score),[26],0.276
same,glycan array binding signal (z-score),[27],0.223
same,glycan array binding signal (z-score),Gal(b1-4)Glc,-0.62
same,glycan array binding signal (z-score),Gal(b1-4)Glc6S,2.38
same,glycan array binding signal (z-score),Gal(b1-4)GlcNAc,-0.281
same,glycan array binding signal (z-score),[28],0.688
same,glycan array binding signal (z-score),[29],-0.457
same,glycan array binding signal (z-score),[30],-0.254
same,glycan array binding signal (z-score),[31],-0.668
same,glycan array binding signal (z-score),[32],-0.186
same,glycan array binding signal (z-score),[33],-0.609
same,glycan array binding signal (z-score),[34],6.38
same,glycan array binding signal (z-score),[35],-0.621
same,glycan array binding signal (z-score),[36],-0.703
same,glycan array binding signal (z-score),[37],-0.495
same,glycan array binding signal (z-score),[38],0.474
same,glycan array binding signal (z-score),[39],-0.538
same,glycan array binding signal (z-score),[40],-0.363
same,glycan array binding signal (z-score),[41],-0.338
same,glycan array binding signal (z-score),[42],-0.447
same,glycan array binding signal (z-score),[43],-0.656
